{"sequences": {"note": "Protein sequences, listed by entry. Tags and fused reporters are not part of them. Lines headed by an entry give the natural chain unless they say otherwise; changes in a name come on top. Chains listed by the source or under a name are the forms on record and can include a tag or linker.", "UniProt P0CX25": "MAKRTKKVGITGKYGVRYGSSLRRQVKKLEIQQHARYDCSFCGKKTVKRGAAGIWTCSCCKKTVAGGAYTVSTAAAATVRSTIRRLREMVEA", "rpl43BΔM-HA (P0CX25, form named)": "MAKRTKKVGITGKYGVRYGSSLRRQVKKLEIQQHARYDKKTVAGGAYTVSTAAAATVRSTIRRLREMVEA", "UniProt Q12522": "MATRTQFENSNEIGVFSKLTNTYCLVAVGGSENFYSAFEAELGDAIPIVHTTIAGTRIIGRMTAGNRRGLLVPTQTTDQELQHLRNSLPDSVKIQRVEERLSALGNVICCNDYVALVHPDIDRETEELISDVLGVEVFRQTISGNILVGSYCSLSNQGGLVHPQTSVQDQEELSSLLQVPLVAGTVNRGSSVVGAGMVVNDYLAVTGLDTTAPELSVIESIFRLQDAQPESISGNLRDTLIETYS"}, "source": "paper PMC6928942", "key": {"[1]": {"molecular_target": "T1, MBP-Kap121 (S. cerevisiae) (UniProt P32337)", "T1 sequence": "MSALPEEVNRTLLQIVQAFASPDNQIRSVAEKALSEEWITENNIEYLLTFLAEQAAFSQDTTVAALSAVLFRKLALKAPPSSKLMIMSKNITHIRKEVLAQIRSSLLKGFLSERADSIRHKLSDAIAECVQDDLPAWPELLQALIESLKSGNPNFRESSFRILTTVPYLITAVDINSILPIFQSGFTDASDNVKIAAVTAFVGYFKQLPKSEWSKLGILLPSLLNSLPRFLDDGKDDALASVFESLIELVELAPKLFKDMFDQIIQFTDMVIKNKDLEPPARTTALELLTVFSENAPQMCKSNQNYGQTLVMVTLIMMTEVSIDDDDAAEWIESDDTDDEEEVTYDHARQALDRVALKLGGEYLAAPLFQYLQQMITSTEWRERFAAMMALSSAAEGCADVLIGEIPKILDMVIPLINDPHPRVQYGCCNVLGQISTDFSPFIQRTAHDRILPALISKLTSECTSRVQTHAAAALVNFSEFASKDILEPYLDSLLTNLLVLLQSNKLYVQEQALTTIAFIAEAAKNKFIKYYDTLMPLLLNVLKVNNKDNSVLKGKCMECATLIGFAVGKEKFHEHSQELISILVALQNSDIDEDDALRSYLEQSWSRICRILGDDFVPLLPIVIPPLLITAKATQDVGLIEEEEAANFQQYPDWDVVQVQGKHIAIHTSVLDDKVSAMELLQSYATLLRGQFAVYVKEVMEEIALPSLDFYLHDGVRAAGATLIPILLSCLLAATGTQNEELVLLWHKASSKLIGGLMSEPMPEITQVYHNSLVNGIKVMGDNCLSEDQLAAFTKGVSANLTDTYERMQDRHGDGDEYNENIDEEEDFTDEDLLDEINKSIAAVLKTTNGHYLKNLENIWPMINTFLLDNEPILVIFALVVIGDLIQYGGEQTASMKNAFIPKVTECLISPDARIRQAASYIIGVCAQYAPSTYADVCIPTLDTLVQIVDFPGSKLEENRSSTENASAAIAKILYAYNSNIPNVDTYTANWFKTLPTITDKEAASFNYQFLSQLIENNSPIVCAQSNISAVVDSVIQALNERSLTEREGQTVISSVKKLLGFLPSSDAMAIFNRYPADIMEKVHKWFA", "assay": "pull-down; MBP-Kap121 immobilized on amylose resins; recombinant GST-Rpl43 variants, Puf6-His6 and Loc1-His6 added separately or in combination; only the target purified"}, "[2]": {"molecular_target": "GST-Rpl43ΔC (S. cerevisiae) (UniProt P0CX25)", "assay": "pull-down; GST fusion from E. coli whole-cell extract bound to glutathione beads 1 h 4 °C and washed; E. coli extract with the prey added 1 h 4 °C; TEN100 buffer (20 mM Tris pH 7.4, 0.1 mM EDTA, 100 mM NaCl); Coomassie stain and Western blotting; only the target purified"}, "[3]": {"molecular_target": "GST-Rpl43ΔN (S. cerevisiae) (UniProt P0CX25)", "assay": "pull-down; GST fusion from E. coli whole-cell extract bound to glutathione beads 1 h 4 °C and washed; E. coli extract with the prey added 1 h 4 °C; TEN100 buffer (20 mM Tris pH 7.4, 0.1 mM EDTA, 100 mM NaCl); Coomassie stain and Western blotting; only the target purified"}, "[4]": {"molecular_target": "GST-Rpl43ΔNH (S. cerevisiae) (UniProt P0CX25)", "assay": "pull-down; GST fusion from E. coli whole-cell extract bound to glutathione beads 1 h 4 °C and washed; E. coli extract with the prey added 1 h 4 °C; TEN100 buffer (20 mM Tris pH 7.4, 0.1 mM EDTA, 100 mM NaCl); Coomassie stain and Western blotting; only the target purified"}, "[5]": {"molecular_target": "GST-Rpl43 (S. cerevisiae) (UniProt P0CX25)", "assay": "pull-down; GST fusion from E. coli whole-cell extract bound to glutathione beads 1 h 4 °C and washed; E. coli extract with the prey added 1 h 4 °C; TEN100 buffer (20 mM Tris pH 7.4, 0.1 mM EDTA, 100 mM NaCl); Coomassie stain and Western blotting; only the target purified"}, "Brx1-TAP (S. cerevisiae)": {"molecular_target": "T2, Brx1-TAP (S. cerevisiae) (UniProt Q08235)", "T2 sequence": "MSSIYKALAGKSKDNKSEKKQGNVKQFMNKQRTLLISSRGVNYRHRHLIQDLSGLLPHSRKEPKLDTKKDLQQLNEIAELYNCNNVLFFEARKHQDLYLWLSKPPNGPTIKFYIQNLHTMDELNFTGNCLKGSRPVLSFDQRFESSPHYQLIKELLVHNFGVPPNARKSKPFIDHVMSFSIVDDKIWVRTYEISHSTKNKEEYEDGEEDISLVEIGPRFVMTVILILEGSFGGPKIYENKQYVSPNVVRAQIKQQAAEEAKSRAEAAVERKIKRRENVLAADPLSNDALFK", "assay": "co-IP; Brx1-TAP immunoprecipitated from yeast to purify pre-60S; Rpl43 mutants detected by blot"}, "Noc4-TAP (S. cerevisiae)": {"molecular_target": "T3, Noc4-TAP (S. cerevisiae) (UniProt Q06512)", "T3 sequence": "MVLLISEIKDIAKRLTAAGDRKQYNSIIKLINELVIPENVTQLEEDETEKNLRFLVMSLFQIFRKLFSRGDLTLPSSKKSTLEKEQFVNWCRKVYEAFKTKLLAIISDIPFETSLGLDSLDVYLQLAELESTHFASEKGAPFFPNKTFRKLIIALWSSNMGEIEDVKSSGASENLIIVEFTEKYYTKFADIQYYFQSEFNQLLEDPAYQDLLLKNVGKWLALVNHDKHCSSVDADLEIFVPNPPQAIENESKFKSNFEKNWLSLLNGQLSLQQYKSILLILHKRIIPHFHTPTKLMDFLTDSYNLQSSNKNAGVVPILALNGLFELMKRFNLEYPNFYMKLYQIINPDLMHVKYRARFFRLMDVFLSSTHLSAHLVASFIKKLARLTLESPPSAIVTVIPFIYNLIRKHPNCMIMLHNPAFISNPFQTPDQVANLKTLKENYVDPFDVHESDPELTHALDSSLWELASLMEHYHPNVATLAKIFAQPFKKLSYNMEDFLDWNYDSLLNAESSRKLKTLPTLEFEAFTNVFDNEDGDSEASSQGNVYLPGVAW", "assay": "co-IP; TAP-tagged transacting factors immunoprecipitated from yeast lysate to purify pre-90S and pre-60S particles at different stages; Puf6, Loc1 and Rpl43 detected by Western blotting"}, "Arx1-TAP (S. cerevisiae)": {"molecular_target": "T4, Arx1-TAP (S. cerevisiae) (UniProt Q03862)", "T4 sequence": "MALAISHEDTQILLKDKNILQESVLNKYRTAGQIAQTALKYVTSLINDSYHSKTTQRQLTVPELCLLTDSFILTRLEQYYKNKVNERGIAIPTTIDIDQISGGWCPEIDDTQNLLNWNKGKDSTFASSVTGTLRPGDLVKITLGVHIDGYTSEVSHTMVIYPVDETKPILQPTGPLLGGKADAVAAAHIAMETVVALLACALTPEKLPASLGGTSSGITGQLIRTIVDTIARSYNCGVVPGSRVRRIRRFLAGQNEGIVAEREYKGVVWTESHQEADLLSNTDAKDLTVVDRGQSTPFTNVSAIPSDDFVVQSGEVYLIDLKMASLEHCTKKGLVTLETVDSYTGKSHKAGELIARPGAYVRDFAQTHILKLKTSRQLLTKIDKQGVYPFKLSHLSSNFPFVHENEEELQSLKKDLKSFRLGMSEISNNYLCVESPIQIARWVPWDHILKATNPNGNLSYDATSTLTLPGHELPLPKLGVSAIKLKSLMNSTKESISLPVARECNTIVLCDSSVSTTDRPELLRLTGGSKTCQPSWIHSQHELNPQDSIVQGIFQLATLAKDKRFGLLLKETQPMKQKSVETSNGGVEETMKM", "assay": "co-IP; TAP-tagged transacting factors immunoprecipitated from yeast lysate to purify pre-90S and pre-60S particles at different stages; Puf6, Loc1 and Rpl43 detected by Western blotting"}, "[6]": {"molecular_target": "T5, Nop56-TAP (S. cerevisiae) (UniProt Q12460)", "T5 sequence": "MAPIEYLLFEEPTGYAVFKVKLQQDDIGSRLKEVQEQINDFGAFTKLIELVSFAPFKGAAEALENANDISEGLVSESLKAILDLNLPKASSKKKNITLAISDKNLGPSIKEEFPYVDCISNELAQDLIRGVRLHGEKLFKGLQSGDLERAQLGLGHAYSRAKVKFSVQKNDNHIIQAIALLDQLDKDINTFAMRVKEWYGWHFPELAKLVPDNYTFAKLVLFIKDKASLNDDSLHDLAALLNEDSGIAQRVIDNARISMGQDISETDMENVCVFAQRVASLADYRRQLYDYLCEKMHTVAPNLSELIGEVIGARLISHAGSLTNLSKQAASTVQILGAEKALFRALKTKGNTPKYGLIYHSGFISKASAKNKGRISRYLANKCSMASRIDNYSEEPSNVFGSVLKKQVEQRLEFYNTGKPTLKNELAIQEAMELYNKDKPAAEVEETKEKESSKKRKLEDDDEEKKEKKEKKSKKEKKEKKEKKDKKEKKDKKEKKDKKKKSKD", "assay": "co-IP; TAP-tagged transacting factors immunoprecipitated from yeast lysate to purify pre-90S and pre-60S particles at different stages; Puf6, Loc1 and Rpl43 detected by Western blotting"}, "Rei1-TAP (S. cerevisiae)": {"molecular_target": "T6, Rei1-TAP (S. cerevisiae) (UniProt P38344)", "T6 sequence": "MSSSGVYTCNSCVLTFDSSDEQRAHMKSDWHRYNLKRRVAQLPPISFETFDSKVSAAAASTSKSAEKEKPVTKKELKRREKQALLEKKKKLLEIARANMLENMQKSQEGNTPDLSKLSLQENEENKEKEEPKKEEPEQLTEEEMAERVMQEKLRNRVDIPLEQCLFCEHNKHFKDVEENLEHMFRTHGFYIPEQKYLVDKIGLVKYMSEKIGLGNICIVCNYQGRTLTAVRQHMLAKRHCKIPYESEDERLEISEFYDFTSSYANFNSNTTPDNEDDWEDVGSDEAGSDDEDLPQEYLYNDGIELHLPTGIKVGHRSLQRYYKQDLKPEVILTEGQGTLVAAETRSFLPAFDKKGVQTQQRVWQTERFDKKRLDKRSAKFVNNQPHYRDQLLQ", "assay": "co-IP; TAP-tagged transacting factors immunoprecipitated from yeast lysate to purify pre-90S and pre-60S particles at different stages; Puf6, Loc1 and Rpl43 detected by Western blotting"}, "Tif6-TAP (S. cerevisiae)": {"molecular_target": "Tif6-TAP (S. cerevisiae) (UniProt Q12522)", "assay": "co-IP; Tif6-TAP immunoprecipitated from yeast; Puf6 mutants examined"}, "Puf6-myc (S. cerevisiae)": {"molecular_target": "Puf6-myc (S. cerevisiae) (UniProt Q04373)", "assay": "co-IP; anti-c-myc antibody (9E10) and protein-A agarose beads on yeast extract, 4 °C, IP buffer (20 mM Tris pH 7.5, 50 mM NaCl, 6 mM MgCl2, 10% glycerol); Western blotting"}}, "note": "Results are given in words; binding and its absence hold for the method and conditions named. Binding seen in cells or lysates may run through a third protein. Some binding calls cover weakened binding; strength is not graded here. For some assays here: Tags and fused reporters may be left off the sequences shown.", "data": [{"substance": "Puf6-His6 (from UniProt Q04373 1-656)", "values": [{"measurement": "binding", "setting": "[1]", "result": "binds"}, {"measurement": "binding", "setting": "[2]", "result": "binds"}, {"measurement": "binding", "setting": "[3]", "result": "no binding"}, {"measurement": "binding", "setting": "[4]", "result": "no binding"}, {"measurement": "binding", "setting": "[5]", "result": "binds"}]}, {"substance": "rpl43BΔN-HA (from UniProt P0CX25 22-92) (domain or fragment)", "values": [{"measurement": "binding", "setting": "Brx1-TAP (S. cerevisiae)", "result": "binds"}]}, {"substance": "GST-Rpl43ΔNH (from UniProt P0CX25 35-92) (domain or fragment)", "values": [{"measurement": "binding", "setting": "[1]", "result": "no binding"}]}, {"substance": "GST-Rpl43ΔN (from UniProt P0CX25 22-92) (domain or fragment)", "values": [{"measurement": "binding", "setting": "[1]", "result": "binds"}]}, {"substance": "rpl43BΔM-HA (from UniProt P0CX25 1-92)", "values": [{"measurement": "binding", "setting": "Brx1-TAP (S. cerevisiae)", "result": "binds"}]}, {"substance": "Puf6 (from UniProt Q04373 1-656)", "values": [{"measurement": "binding", "setting": "Noc4-TAP (S. cerevisiae)", "result": "binds"}, {"measurement": "binding", "setting": "Arx1-TAP (S. cerevisiae)", "result": "no binding"}, {"measurement": "binding", "setting": "[6]", "result": "binds"}, {"measurement": "binding", "setting": "Rei1-TAP (S. cerevisiae)", "result": "no binding"}]}, {"substance": "rpl43BΔC-HA (from UniProt P0CX25 1-73) (domain or fragment)", "values": [{"measurement": "binding", "setting": "Brx1-TAP (S. cerevisiae)", "result": "no binding"}]}, {"substance": "GST-Rpl43 (from UniProt P0CX25 1-92)", "values": [{"measurement": "binding", "setting": "[1]", "result": "binds"}]}, {"substance": "Puf6-myc (from UniProt Q04373 1-656)", "values": [{"measurement": "binding", "setting": "Tif6-TAP (S. cerevisiae)", "result": "binds"}]}, {"substance": "Rpl43B-HA (from UniProt P0CX25 1-92)", "values": [{"measurement": "binding", "setting": "Puf6-myc (S. cerevisiae)", "result": "binds"}]}, {"substance": "GST-Rpl43ΔC (from UniProt P0CX25 1-73) (domain or fragment)", "values": [{"measurement": "binding", "setting": "[1]", "result": "binds"}]}, {"substance": "Ribosomal protein large subunit 43 (Rpl43) (from UniProt P0CX25 1-92)", "values": [{"measurement": "binding", "setting": "Noc4-TAP (S. cerevisiae)", "result": "binds"}, {"measurement": "binding", "setting": "[6]", "result": "binds"}]}]}
